From the supplement of paper PMC4604168 (melanoma cell lines)
The list shows a part of the results. Single values are uncertain, as repeats are few or missing.

The compounds below were run on WM1745 (assay: cell count relative to DMSO control; melanoma cells; higher = more viable cells). Details: library dose: low library concentration; 72 h.
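Further: cell number obtained by counting DAPI-stained nuclei in high-throughput microscope images with image analysis software, screen run in 1,536-well plates.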

SMILES | cell count [%]
C/C(O)=C(\C#N)C(=O)Nc1cc(Br)ccc1Br + CC(C)CCN1c2nc(Nc3cc(F)c(O)c(F)c3)ncc2N(C)C(=O)C1C [BID1870] (first compound 2 µM, partner dose 0.2 µM) | 111
COc1ccc(C2=N[C@@H](c3ccc(Cl)cc3)[C@@H](c3ccc(Cl)cc3)N2C(=O)N2CCNC(=O)C2)c(OC(C)C)c1 [Nutlin-3] + N.N.[Cl][Pt][Cl] [cisplatin] (first compound 0.1 µM, partner dose 1.6 µM) | 102
O=C(Nc1cc(C(F)(F)F)cc(C(F)(F)F)c1)c1cc(Cl)ccc1O + C/C(O)=C(\C#N)C(=O)Nc1cc(Br)ccc1Br [LFM-A13] (first compound 0.016 µM, partner dose 2 µM) | 105
Cc1cc(SCc2sc(-c3ccc(C(F)(F)F)c(F)c3)nc2C)ccc1OCC(=O)O + C/C(O)=C(\C#N)C(=O)Nc1cc(Br)ccc1Br [LFM-A13] (first compound 2 µM, partner dose 2 µM) | 95.8
CCCCCCCCCCCCCCCCCCOP(=O)([O-])OC1CC[N+](C)(C)CC1 [Perifosine] + C[As](C)SC[C@H](NC(=O)CC[C@H](N)C(=O)O)C(=O)NCC(=O)O [Darinaparsin] (first compound 0.4 µM, partner dose 0.4 µM) | 72.6
O=C(/C=C/c1cccnc1)NCCCCC1CCN(C(=O)c2ccccc2)CC1 + N.N.[Cl][Pt][Cl] [cisplatin] (first compound 0.01 µM, partner dose 1.6 µM) | 98.7
COc1ccc(-c2ccc3c(N4CCOCC4)nc(N4C[C@@H](C)O[C@@H](C)C4)nc3n2)cc1CO + O=C(Oc1ccc([N+](=O)[O-])cc1)N1CCC(C(O)(c2ccc3c(c2)OCO3)c2ccc3c(c2)OCO3)CC1 [JZL184] (first compound 0.02 µM, partner dose 1 µM) | 96
C=C(c1ccc(C(=O)O)cc1)c1cc2c(cc1C)C(C)(C)CCC2(C)C [Bexarotene] + C[As](C)SC[C@H](NC(=O)CC[C@H](N)C(=O)O)C(=O)NCC(=O)O [Darinaparsin] (first compound 2 µM, partner dose 0.4 µM) | 87.9
CC1(C)CCC(c2ccc(Cl)cc2)=C(CN2CCN(c3ccc(C(=O)NS(=O)(=O)c4ccc(N[C@H](CCN5CCOCC5)CSc5ccccc5)c(S(=O)(=O)C(F)(F)F)c4)cc3)CC2)C1 + O=C(Oc1ccc([N+](=O)[O-])cc1)N1CCC(C(O)(c2ccc3c(c2)OCO3)c2ccc3c(c2)OCO3)CC1 [JZL184] (first compound 0.4 µM, partner dose 1 µM) | 10.8
CC(=O)O[C@@]12CO[C@@H]1C[C@H](O)[C@@]1(C)C(=O)[C@H](O)C3=C(C)[C@@H](OC(=O)[C@H](O)[C@@H](NC(=O)OC(C)(C)C)c4ccccc4)C[C@@](O)([C@@H](OC(=O)c4ccccc4)[C@H]21)C3(C)C [Docetaxel] + C/C(O)=C(\C#N)C(=O)Nc1cc(Br)ccc1Br [LFM-A13] (first compound 0.0001 µM, partner dose 2 µM) | 45
CC[C@]1(O)C[C@H]2CN(CCc3c([nH]c4ccccc34)[C@@](C(=O)OC)(c3cc4c(cc3OC)N(C=O)[C@H]3[C@@](O)(C(=O)OC)[C@H](OC(C)=O)[C@]5(CC)C=CCN6CC[C@]43[C@@H]65)C2)C1 [vincristine] + N.N.[Cl][Pt][Cl] [cisplatin] (first compound 0.0001 µM, partner dose 1.6 µM) | 108
O=c1[nH]nc(Sc2ncc([N+](=O)[O-])s2)n1-c1ccc2c(c1)OCCO2 + O=C(Oc1ccc([N+](=O)[O-])cc1)N1CCC(C(O)(c2ccc3c(c2)OCO3)c2ccc3c(c2)OCO3)CC1 [JZL184] (first compound 0.2 µM, partner dose 1 µM) | 92.9
O=S(=O)(c1ccccc1)N(CC(F)(F)F)c1ccc(C(O)(C(F)(F)F)C(F)(F)F)cc1 + C/C(O)=C(\C#N)C(=O)Nc1cc(Br)ccc1Br [LFM-A13] (first compound 1.4 µM, partner dose 2 µM) | 90.1
O=C(Nc1cc(C(F)(F)F)cc(C(F)(F)F)c1)c1cc(Cl)ccc1O + O=C(Oc1ccc([N+](=O)[O-])cc1)N1CCC(C(O)(c2ccc3c(c2)OCO3)c2ccc3c(c2)OCO3)CC1 [JZL184] (first compound 0.016 µM, partner dose 1 µM) | 97
COc1cc([C@@H]2c3cc4c(cc3[C@@H](O[C@@H]3O[C@@H]5CO[C@@H](C)O[C@H]5[C@H](O)[C@H]3O)[C@H]3COC(=O)[C@H]23)OCO4)cc(OC)c1O [etoposide] + Cn1cc(C2=C(c3cn(C4CCN(Cc5ccccn5)CC4)c4ccccc34)C(=O)NC2=O)c2ccccc21 [Enzastaurin] (first compound 0.02 µM, partner dose 0.8 µM) | 106
O=C(Nc1cccc(Cl)c1)Nc1ncc(CCNc2ncnc3ccsc23)s1 + C/C(O)=C(\C#N)C(=O)Nc1cc(Br)ccc1Br [LFM-A13] (first compound 0.0008 µM, partner dose 2 µM) | 84.1
CCN(CC)CCNC(=O)c1c(C)[nH]c(/C=C2\C(=O)Nc3ccc(F)cc32)c1C [sunitinib] + Cc1cc(SCc2sc(-c3ccc(C(F)(F)F)c(F)c3)nc2C)ccc1OCC(=O)O [GW0742] (first compound 0.4 µM, partner dose 2 µM) | 94
O=C(Oc1ccc([N+](=O)[O-])cc1)N1CCC(C(O)(c2ccc3c(c2)OCO3)c2ccc3c(c2)OCO3)CC1 + CC(C)CCN1c2nc(Nc3cc(F)c(O)c(F)c3)ncc2N(C)C(=O)C1C [BID1870] (first compound 1 µM, partner dose 0.2 µM) | 104
NC1(c2ccc(-c3nc4ccn5c(=O)[nH]nc5c4cc3-c3ccccc3)cc2)CCC1 + N.N.[Cl][Pt][Cl] [cisplatin] (first compound 0.4 µM, partner dose 1.6 µM) | 88.9
Cc1cc(SCc2sc(-c3ccc(C(F)(F)F)c(F)c3)nc2C)ccc1OCC(=O)O + O=c1cc(-c2cccc3c2Sc2ccccc2S3)oc(N2CCOCC2)c1 [KU55933] (first compound 2 µM, partner dose 1 µM) | 88.6
Cc1cc(SCc2sc(-c3ccc(C(F)(F)F)c(F)c3)nc2C)ccc1OCC(=O)O + O=C(Oc1ccc([N+](=O)[O-])cc1)N1CCC(C(O)(c2ccc3c(c2)OCO3)c2ccc3c(c2)OCO3)CC1 [JZL184] (first compound 2 µM, partner dose 1 µM) | 92.7
O=C(Nc1cc(C(F)(F)F)cc(C(F)(F)F)c1)c1cc(Cl)ccc1O + C[C@]12O[C@H](C[C@]1(O)CO)n1c3ccccc3c3c4c(c5c6ccccc6n2c5c31)CNC4=O [Lestaurtinib] (first compound 0.016 µM, partner dose 0.004 µM) | 107
CCCCCCCCc1ccc(CCC(N)(CO)CO)cc1 [fingolimod] + N.N.[Cl][Pt][Cl] [cisplatin] (first compound 2 µM, partner dose 1.6 µM) | 75.6
O=S(=O)(c1ccccc1)N(CC(F)(F)F)c1ccc(C(O)(C(F)(F)F)C(F)(F)F)cc1 + O=C(Oc1ccc([N+](=O)[O-])cc1)N1CCC(C(O)(c2ccc3c(c2)OCO3)c2ccc3c(c2)OCO3)CC1 [JZL184] (first compound 1.4 µM, partner dose 1 µM) | 91.5
O=C(/C=C/c1cccnc1)NCCCCC1CCN(C(=O)c2ccccc2)CC1 + O=C(Oc1ccc([N+](=O)[O-])cc1)N1CCC(C(O)(c2ccc3c(c2)OCO3)c2ccc3c(c2)OCO3)CC1 [JZL184] (first compound 0.01 µM, partner dose 1 µM) | 118
NC1(c2ccc(-c3nc4ccn5c(=O)[nH]nc5c4cc3-c3ccccc3)cc2)CCC1 + Cc1cc(SCc2sc(-c3ccc(C(F)(F)F)c(F)c3)nc2C)ccc1OCC(=O)O [GW0742] (first compound 0.4 µM, partner dose 2 µM) | 96.1
NC1(c2ccc(-c3nc4ccn5c(=O)[nH]nc5c4cc3-c3ccccc3)cc2)CCC1 + C[As](C)SC[C@H](NC(=O)CC[C@H](N)C(=O)O)C(=O)NCC(=O)O [Darinaparsin] (first compound 0.4 µM, partner dose 0.4 µM) | 78.4
COc1ccc(C2=N[C@@H](c3ccc(Cl)cc3)[C@@H](c3ccc(Cl)cc3)N2C(=O)N2CCNC(=O)C2)c(OC(C)C)c1 [Nutlin-3] + O=C(Oc1ccc([N+](=O)[O-])cc1)N1CCC(C(O)(c2ccc3c(c2)OCO3)c2ccc3c(c2)OCO3)CC1 [JZL184] (first compound 0.1 µM, partner dose 1 µM) | 97.5
O=C(Oc1ccc([N+](=O)[O-])cc1)N1CCC(C(O)(c2ccc3c(c2)OCO3)c2ccc3c(c2)OCO3)CC1 + CCCCCCCCCCCC1=C(O)C(=O)C=C(O)C1=O [Embelin] (first compound 1 µM, partner dose 1.2 µM) | 104
COc1ccc(C2=N[C@@H](c3ccc(Cl)cc3)[C@@H](c3ccc(Cl)cc3)N2C(=O)N2CCNC(=O)C2)c(OC(C)C)c1 [Nutlin-3] + C[C@]12O[C@H](C[C@]1(O)CO)n1c3ccccc3c3c4c(c5c6ccccc6n2c5c31)CNC4=O [Lestaurtinib] (first compound 0.1 µM, partner dose 0.004 µM) | 89.6
